Several values for one entry are separate records, joined by “and”; a condition that tells them apart may be missing. Equal entries are not always repeated. In all, about 150,000 compounds went through this assay and about 540 (0.36%) showed an effect of 50% or more. The list shows a part of the results.
System: Plasmodium falciparum
Assay: Primary screen in NF54 nanoGlo assay, in single point, at 2uM, 72h; a lower Z score goes with more inhibition
Format: functional, Erythrocyte
Details: timepoint 72 hour

SMILES | % Inhibition [%] | Z score | % Inhibition (2 µM)
CC[C@H](NC(=O)Cc1c(C)n[nH]c1C)C1CC(O)C1 (some centres not stated) | 3 | -0.29 | 
CN(C(=O)[C@@H]1CCn2c(C(=O)c3ccccc3)ccc21)C1CCCCC1 | -15 | 1.79 | 
Cc1cc(-c2cc(-c3c(C)nn(CC(=O)O)c3C)nc(N)c2C#N)oc1C | -10 | 1.82 | 
COc1ccc(-c2cnn(C[C@H]3CCOC3)c2)c(CO)c1 | -10 | 1.74 | 
CCc1nnsc1C(=O)Nc1ccc(N2CCNC(=O)C2)nc1 | -1 | 0.28 | 
Cn1ncnc1CNC(=O)C[C@H](O)c1cc(Cl)cc(Cl)c1 | -2 | 0.27 | 
COCCc1ccccc1NCc1nc(-c2cccs2)n[nH]1 | -12 | 1.71 | 
Cc1ccc(CNC(=O)N2CCCCCCNC(=O)[C@@H]3C[C@@H](C(=O)NCCc4c[nH]cn4)C[C@@H]32)cc1 | -13 | 1.69 | 
CC[C@H](NC(=O)N1CCC(O)(C(N)=O)CC1)c1ccccc1F | -8 | 1.04 | 
Cc1cc(C(=O)NCc2ccc(-c3ccnn3C)nc2)n(C)n1 | -2 | 0.24 | 
CCCC(=O)N1CCCN(C2=NS(=O)(=O)C(c3ccc(C)cc3)=C2C)CC1 | -6 | 1.14 | 
CCc1occc1C(=O)N(CC(C)(C)O)C1CC1 | 10 | -1.36 | 
Cc1[nH]ccc1C(=O)NCCc1cn(C)cn1 | -16 | 3.26 | 
CNC(=O)CN1c2ccccc2C(=O)N(C)[C@@H]1c1occc1C | 0 | 0.06 | 
Cc1ccc(N2CCc3c(cccc3NCc3cncn3C)C2)nn1 | -5 | 0.45 | 
O=S(=O)(c1ccccc1)N1CC[C@H](Cc2nnc(-c3cccnc3)[nH]2)C1 | -12 | 2.09 | 
COCCN1CCC(CN2C[C@@](C)(c3ccccc3)CCC2=O)CC1 | 3 | -0.45 | 
CC(C)CNC(=O)N1CC[C@H](Nc2cccnc2)C1 | -13 | 1.65 | 
O=C(Cc1cscn1)N1CCN(C(=O)c2ccsc2)CC1 | -12 | 2.37 | 
Cc1cccc(OCc2nc(C(=O)NC[C@H]3CCCO3)cs2)c1C | -17 | 1.71 | 
Cc1ccccc1C(=O)Nc1ccc2c(c1)N(C(=O)c1ccccc1)CCC2 | -2 | 0.19 | 

SMILES | % Inhibition [%] | Z score | % Inhibition (2 µM)
CN1CCN(Cc2ccc(C(N)=O)cc2)C[C@@]12CCC(=O)N(CC1CC1)CC2 | -5 | 0.76 | 
COCCN=C(NCCc1ccc(OC)cc1)NCc1nccs1 | -1 | 0.2 | 
Cc1ccc(C(=O)NCC(=O)O[C@H]2CCOC2=O)cc1 | 2 | -0.15 | 
Cc1cc(C(=O)Nc2ccc3c(c2)C(=O)N(C)C3=O)sc1C | -13 | 1.8 | 
CC(=O)N1CCc2cc(S(=O)(=O)[C@@H](C)CC(=O)N3CCN(c4cccc(C)c4C)CC3)ccc21 | 5 | -0.85 | 
Cc1nc(N[C@H]2CCCc3ccccc32)cc(C2CC(O)C2)n1 (some centres not stated) | 2 | -0.32 | 
O=C(CCOc1cccc(Cl)c1)N1CC[C@@](O)(C(F)F)C1 | -6 | 1.24 | 
O=C(NC[C@H]1CCCCS1(=O)=O)NC1CC(C(F)(F)F)C1 (some centres not stated) | 3 | -0.51 | 
Cc1cc(C)c(CN2CCOC[C@@H]2C(=O)O)cc1CN1CCC(C)CC1 | -16 | 2.48 | 
CCC(C#N)(CC)C(=O)Nc1cc2cc[nH]c2cn1 | 10 | -1.32 | 
CC(C)(C)OC(=O)N1CC(Oc2ncccc2F)C1 | -3 | 0.32 | 
CN(Cc1csc(-c2cccs2)n1)c1ncnc2c1CCNCC2 | 10 | -1.3 | 
Cc1cc(C)n(CCCn2ccnc2-c2ccc(N(C)C)nc2)n1 | -1 | 0.11 | 
CC(=O)N1CCN(c2ccc(NCc3ccccc3)cc2)CC1 | -32 | 3.8 | 
O=S(=O)(c1ccccc1)C1CC2CCC(C1)N2S(=O)(=O)c1cccnc1 (configuration not stated) | 1 | -0.09 | 
C[C@@H](CC#N)N(C)C(=O)c1cc(F)c[nH]1 | 6 | -0.62 | 
CCCC1(CCC)NC(=O)N(CC(=O)NCCCOC)C1=O | -5 | 0.94 | 
Cc1nc(-c2ccc(NC(=O)c3cccs3)cc2)co1 | -3 | 0.41 | 
O=C(NC1CCOCC1)c1ccc(NC(=O)C2CC=CC2)cc1 | -4 | 0.44 | 
O=C(c1ccccc1OCc1ccccc1)N1CC[C@@H]2CNC[C@@H]21 | 8 | -1.05 | 
CC(=O)c1cccc(NC(=O)[C@@H]2CN(S(=O)(=O)c3ccccc3)c3cc(C(C)(C)C)ccc3O2)c1 | -10 | 1.51 | 

SMILES | % Inhibition [%] | Z score | % Inhibition (2 µM)
CCOc1cc(CN(CC)C(=O)Cc2cnn(-c3ccccc3)c2)ccc1OCc1cccs1 | -1 | 0.08 | 
COc1ccc(N2CCN(C(=O)c3cnn(C(C)(C)C)c3C3CCN(C(=O)OC(C)(C)C)CC3)CC2)cc1 | 14 | -2.15 | 
CN1CCN(c2nc3c(c(N4CCCC4)n2)CN(C(=O)NCc2ccccc2)CC3)CC1 | 8 | -0.8 | 
Cc1cc(Br)cnc1NC(=O)[C@H]1CCS(=O)(=O)C1 | -2 | 0.39 | 
O=C(Nc1ccc(-n2cncn2)nc1)C1CCCCC1C(F)(F)F (configuration not stated) | -1 | 0.25 | 
Cc1cc(C(=O)Nc2ccc([C@@H](O)[C@H]3COCC(=O)N3Cc3ccccc3F)cc2)n(C)n1 | 10 | -1.16 | 
CC(C)(CCCc1ccccc1)C(=O)NC1CCS(=O)(=O)CC1 | -1 | 0.11 | 
CCCN(Cc1nccn1C)C(=O)NCc1nc(CC)cs1 | -13 | 2.37 | 
COCCCN(Cc1c(-c2ccccc2)noc1N1CCCC[C@@H]1C)C(=O)C1CCCC1 | 2 | -0.28 | 
CCn1c(C)cc(C(=O)N2C[C@@H]3CC[C@H]2CN(Cc2[nH]cnc2C)C3)c1C | -8 | 1.19 | 
O=C(c1cc2ccccc2o1)N1CCC[C@@H]1Cn1nccn1 | -2 | 0.31 | 
O=C(CN1CCN2C(=O)OC[C@H]2C1)NCC1CCCCC1 | -2 | 0.31 | 
CCCN1C[C@@H](NC(=O)COc2ccc(Cl)cc2Cl)CC1=O | -7 | 0.81 | 
CCO[C@@H](C)c1ncc(C(=O)Nc2ccc(-c3nnn[nH]3)cc2)s1 | -5 | 0.73 | 
COCc1cc(CN(C)c2cc(C(C)C)nc(C)n2)n[nH]1 | -1 | 0.09 | 
CCN(c1ccccc1)c1ccc(CNC(=O)Cn2cncn2)cc1 | 9 | -1.26 | 
NC(=O)c1cncc(CCOc2ccc(F)cc2)c1 | -10 | 2.05 | 
CC1CC1C(=O)NCCC(=O)NC(C)(C)C (configuration not stated) | -9 | 1.37 | 
CCN(C(=O)c1cccnc1C)[C@H]1CCN(Cc2ccccc2)C1 | -8 | 1.05 | 
COc1ccccc1NC(=O)Cn1c2ccccc2n2c(=O)cc(-c3cccc(Cl)c3)nc12 | -4 | 0.45 | 
CC(c1ccccc1)n1nnnc1N1C[C@@H]2[C@H](C1)[C@H]1CC[C@@H]2O1 (some centres not stated) | -8 | 1.15 | 

SMILES | % Inhibition [%] | Z score | % Inhibition (2 µM)
O=C(CCC(F)(F)F)NCCCCc1ccccn1 | -5 | 0.61 | 
Cc1nnc2c(N3CC[C@H](NC(=O)c4cc(-c5ccccc5)n[nH]4)C3)nccn12 | -4 | 0.5 | 
CC1CCC(NC(=O)CN2CCN(c3ncc(C(F)(F)F)s3)CC2)CC1 (configuration not stated) | -3 | 0.69 | 
CN(C)c1ncc(CN[C@H]2CCc3sc(Cl)cc32)s1 | 1 | -0.07 | 
O=C(C(=O)N1CC[C@@]2(CCCN(Cc3ccccc3F)C2)C1)c1ccccc1 | 1 | -0.13 | 
Cc1ccccc1Oc1nc(N2CCCCC2)nc2c1CN(C(=O)c1ccco1)CC2 | 1 | -0.23 | 
Cc1nn(C)cc1-c1ccc(C(=O)N2CCC3(CCNC(=O)CC3)CC2)cc1 | 5 | -0.66 | 
CC(C(=O)N1CCC(=O)NCCN(c2nc3cc(C)cc(C)c3o2)CC1)=C1CCC1 | 0 | 0.02 | 
CCCc1cc(CN(C)[C@H]2CCN(c3ccccc3)C2)n[nH]1 | -3 | 0.39 | 
CC1(C)C[C@@H]2C[C@@](C)(CN2C(=O)c2cnc(-c3cccnc3)nc2)C1 | -21 | 3.45 | 
CN(Cc1nccn1C(F)F)S(=O)(=O)CC1(C#N)CCCC1 | -7 | 0.89 | 
O=C(CCS(=O)(=O)c1ccc(Cl)cc1)NCc1cccnc1 | -30 | 3.47 | 
CN(C)CCNC(=O)c1ccc(Cl)c(N)c1 |  |  | -13% and 2%
Cc1ccccc1Cn1nnc2scnc2c1=O | -12 | 1.42 | 
COc1nc(C)cc(NC2CCS(=O)(=O)CC2)n1 | -5 | 0.89 | 
Cc1ccc(S(=O)(=O)N2CCC(C(=O)O[C@@H](C)C(=O)N(C)C3CCCCC3)CC2)cc1 | -7 | 1.42 | 
Cc1[nH]ccc1C(=O)N[C@H]1CCn2ccnc21 | -16 | 1.91 | 
Cc1noc(C)c1S(=O)(=O)NCc1nncn1C(C)C | -4 | 0.57 | 
COc1ccc(S(=O)(=O)N(C)C2CCCCC2O)cc1C(=O)N1CCCCCC1 (configuration not stated) | -5 | 0.74 | 
CCCc1ccc(OCCNC(=O)C2CCCCC2)cc1 | -12 | 1.54 | 
CCCC(CCC)C(=O)Nc1c(C)cccc1CC | 1 | -0.14 | 
